Assay results from PubChem BioAssay AID504832 (National Center for Advancing Translational Sciences (NCATS), 2011).
The whole screen tested about 310,000 compounds, of which about 18,000 (5.8%) were called active. This list was built around the results that the source calls inconclusive (neither active nor inactive); the mix of calls is not that of the screen. The call rests on the fitted dose curve; in most records, active means well fitted inhibition curve with a large enough effect; inconclusive means small, poorly fitted or top-dose-only effect, or another doubt; inactive means no such curve, though single readings can be large or run the other way. No potency is given beside an inconclusive call; the fits are too rough. More than one record can exist for a structure, and the calls need not agree.

Experiment: Primary qHTS for delayed death inhibitors of the malarial parasite plastid, 48 hour incubation
Conditions: P. falciparum luciferase growth in erythrocytes; series mostly up to 28.7 µM
Summary of the method: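 Luminescence readout; reporter = integrated firefly luciferase in P. falciparum. RBC culture at 2% hematocrit, 0.1% parasitemia final, 37 C/5% CO2; decreased signal taken as growth inhibition.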
Potency means the concentration at half of the fitted maximal effect; tags describe the fitted curve by direction and shape.

Row | SMILES | Potency
1 | CCOc1cc(C(=O)OCC(=O)c2c[nH]c3ccccc23)ccc1OCC(=O)N1CCOCC1 | inconclusive [inhibitor, partial curve]
2 | CCCC(=O)Nc1ccc(C(=O)Nc2ccc([N+](=O)[O-])cc2OC)cc1 | inconclusive [inhibitor, single point]
3 | Cc1ccc(-c2c[n+](Cc3ccc(Cl)cc3)c3n2CCC3)cc1 | active: 0.928 µM
4 | Cc1cccnc1NC(=O)CSc1nnc(CNC(=O)c2cccc([N+](=O)[O-])c2)n1C | inactive
5 | O=C(CN1C(=O)c2cccnc2Oc2ccc(Cl)cc21)Nc1ccc(F)cc1 | inconclusive [inhibitor, single point]
6 | CCCCCCCCCCCC[n+]1ccc2ccccc2c1 | active: 0.301 µM
7 | Cc1ccccc1C1CCCN(Cc2nc(CC3CC3)no2)C1 (stereo not given) | inconclusive [inhibitor, single point]
8 | CCCCn1c(C23CC4CC(CC(C4)C2)C3)n[nH]c1=S | inconclusive [inhibitor, partial curve, poor fit]
9 | Cc1ccccc1NC(=O)Cc1nc(COC(=O)c2cccc(O)c2)cs1 | inconclusive [inhibitor, single point]
10 | CC(=O)N(CCN(C)C)c1nc2cc3c(cc2s1)OCCO3 | inactive
11 | N#Cc1cn(CCOc2ccccc2F)c2ccccc12 | active: 2.94 µM
12 | COc1cc(S(=O)(=O)Nc2cccc3cn[nH]c23)c(OC)cc1C | active: 10.4 µM
13 | COc1ccc(CNC(=O)c2cccnc2Sc2ccc(Cl)cc2)cc1 | inactive
14 | [2H]c1c([2H])c([2H])c(C(=O)c2sc(N3CCCCCC3)nc2-c2ccccc2)c([2H])c1[2H] | inconclusive [inhibitor, single point]
15 | CC(C)CNC(=O)c1nc(-c2ccccc2)n(-c2ccccc2)n1 | inactive
16 | Cc1ccc(-c2cn(S(=O)(=O)c3cccc4nsnc34)nc2N)cc1 | inconclusive [inhibitor, partial curve, poor fit]
17 | COc1ccc(-c2nn(C)c(=O)c3ccccc23)cc1NC(=O)Cn1nc(-c2ccccc2)c2ccccc2c1=O | inconclusive [inhibitor, full curve]
18 | O=C(CSc1nnc(Cc2cccs2)n1-c1ccc(Cl)cc1)NCc1ccc2c(c1)OCO2 | active: 0.928 µM
19 | CCN(C(=O)CSc1nnc(-c2ccc(C)cc2)n1N)c1c(N)n(Cc2ccccc2)c(=O)[nH]c1=O | inconclusive [inhibitor, single point]
20 | COc1ccc(C(CCNCc2ccc(OC(C)C)cc2)C(C)C)cc1 (stereo not given) | inconclusive [inhibitor, single point]
21 | CN(C)c1ccc(/C=N/NC(=O)c2ccc(CN3C(=O)c4cccc5cccc3c45)cc2)cc1 | inactive
22 | CN1CCC(N(C)S(=O)(=O)c2ccc(NC(=O)COc3cccc(Cl)c3)cc2)CC1 | active: 9.28 µM
23 | C/C(=N\Nc1nc(N2CCCCC2)nc(N2CCOCC2)n1)c1ccccc1O | active: 11.7 µM
24 | Cc1ccc(NC(=O)Cn2c(=O)n(CCCC(=O)NCc3ccco3)c(=O)c3ccccc32)cc1 | inactive

Row | SMILES | Potency
25 | NC1=NC(=O)/C(=C\c2ccc(-c3ccc(Cl)cc3)o2)S1 | inactive
26 | COc1ccc(C)cc1Cn1c(S(C)(=O)=O)nc2ccccc21 | inconclusive [inhibitor, partial curve, poor fit]
27 | O=C(Nc1ccccc1N1CCCC1)C1CCCO1 (stereo not given) | inactive
28 | COc1ccccc1NC(=O)c1ccc(-n2cccn2)nc1 | inconclusive [inhibitor, partial curve]
29 | Cc1nc(-c2cccnc2)sc1C(=O)Nc1ccc(Cl)cc1 | inactive
30 | Cc1ccc2c(c1)C(SCC(=O)NCCc1ccccc1)CC1(CCCC1)O2 (stereo not given) | inactive
31 | COc1ccc(Nc2nc3ccccc3nc2C)cc1 | inactive
32 | NS(=O)(=O)c1ccc(NC(=O)Nc2ccc(C(F)(F)F)cc2)cc1 | inconclusive [inhibitor, single point]
33 | COC(=O)C1=C(C)N(Cc2ccccc2)C(=NCc2cc(OC)c(OC)c(OC)c2)N[C@H]1c1ccc(Br)cc1 | inactive
34 | CCNc1nc(SCCOc2ccccc2)nc(N(C)C)n1 | inconclusive [inhibitor, single point]
35 | CC(C)N1C/C(=C/c2ccsc2)C(=O)/C(=C/c2ccsc2)C1 | inconclusive [inhibitor, single point]
36 | CSc1ccccc1C(=O)C1CCCN(C(=O)c2cncs2)C1 (stereo not given) | inactive
37 | CC1=C(C(=O)Nc2ccc(CC(=O)NCc3ccc(OC(C)C)cc3)cc2)SCCO1 | inactive
38 | O=C(c1ccc(Cl)c(S(=O)(=O)N2CCOCC2)c1)N(Cc1ccco1)Cc1cccs1 | inconclusive [inhibitor, partial curve]
39 | Cc1nn(-c2nc3ccccc3n2Cc2ccccc2)c2c1C(=O)CC(C)(C)C2 | inconclusive [inhibitor, partial curve, poor fit]
40 | COc1ccc2cc3c(N)nn(C(=O)Cc4c[nH]c5ccccc45)c3nc2c1 | inconclusive [inhibitor, partial curve]
41 | O=C(c1ccco1)N(c1ccccn1)c1ccccn1 | inactive
42 | Cc1cccc(N2CCN(S(=O)(=O)c3ccc4c(c3)CCCN4C(=O)C3CCC3)CC2)c1C | inconclusive [inhibitor, single point]
43 | C[C@]12CCC(=O)C=C1CC[C@@H]1[C@@H]2[C@@H](O)C[C@@]2(C)[C@H]1CC[C@]2(O)C(=O)COC(=O)CCC(=O)O | active: 13.1 µM
44 | Cc1ccc(S(=O)(=O)N2CCOCC2)cc1NC(=O)COc1ccc2c(C)cc(=O)oc2c1 | inconclusive [inhibitor, full curve, poor fit]
45 | O=C(Cn1[nH]c(=O)c2ccccc2c1=O)N1CCN(S(=O)(=O)c2ccc(Cl)cc2)CC1 | inconclusive [inhibitor, single point]
46 | CCOC(=O)c1cnc2sc3c(n2c1=O)CCCC3 | inconclusive [inhibitor, single point]
47 | O=C(COC(=O)c1cc(Br)ccc1O)Nc1ccc2c(c1)OCO2 | inconclusive [inhibitor, single point]
48 | Cc1ccc(Cl)cc1N1CCN(C(=O)CSc2nnc3n2C(C)(C)Cc2ccccc2-3)CC1 | inconclusive [inhibitor, single point]

Row | SMILES | Potency
49 | O=C1COc2ccc(C(=O)COC(=O)c3nc(Cl)ccc3Cl)cc2N1 | inactive
50 | CC1=Nc2ccccc2N=C(NC(=O)c2ccccc2)C1c1ccccc1 (stereo not given) | active: 4.15 µM
51 | Cc1ccc(NC(=O)CCNS(=O)(=O)c2ccc3[nH]c(=O)oc3c2)cc1F | inconclusive [inhibitor, single point]
52 | CCOc1ccccc1/C=C/c1onc(C)c1S(=O)(=O)N1CCC(C(=O)NC(C)(C)C)CC1 | active: 14.7 µM
53 | Cc1ccc(S(=O)(=O)N2CCCC2CNC(=O)c2ccc(F)c(F)c2)cc1 (stereo not given) | active: 10.4 µM
54 | Cc1ccc(Cn2nnc3c(=O)[nH]c(C4CCN(S(=O)(=O)/C=C/c5ccccc5)CC4)nc32)cc1 | inconclusive [inhibitor, partial curve]
55 | CC(C)(C)NC[C@H](O)COc1nsnc1N1CCOCC1 | active: 2.39 µM
56 | COc1cc(NC(=O)CN(C)Cc2ccc(OC(F)F)cc2)c(C)cc1[N+](=O)[O-] | inconclusive [inhibitor, single point]
57 | Cc1sc2nc(SCC(=O)N(C)c3ccccc3)n(C)c(=O)c2c1C | active: 8.28 µM
58 | c1ccc(C2CC3CC(c4ccco4)N2O3)cc1 (stereo not given) | inconclusive [inhibitor, partial curve, poor fit]
59 | O=C(Nc1cccc(F)c1)C1CCCN(C(=O)c2ccc(Cl)cc2)C1 (stereo not given) | inconclusive [inhibitor, single point]
60 | CCOC(=O)c1nnn(-c2nonc2N)c1-c1ccc(Br)cc1 | inconclusive [inhibitor, full curve]
61 | CC(C)(C)c1ccc(-c2n[nH]c(=S)n2Cc2ccccc2)cc1 | inactive
62 | O=C(c1ccco1)N1CCN(Cc2cccc(C(F)(F)F)c2)CC1 | inconclusive [inhibitor, single point]
63 | OCCCn1c(CCCNc2nc(-c3cccc(Br)c3)cs2)nc2cc(Cl)c(N3CCCCC3)cc21 | inconclusive [inhibitor, partial curve, poor fit]
64 | CC(=O)N1CC(C)Oc2ccc(S(=O)(=O)NC(CC(=O)O)c3ccccc3)cc21 (stereo not given) | inactive
65 | CCc1cccc(NC(=O)CCCN2C(=O)C(c3ccccc3)Oc3cccnc32)c1 (stereo not given) | inconclusive [inhibitor, single point]
66 | Cc1ccc(/C(=N\O)c2oc3c(C)c4oc(=O)cc(C)c4cc3c2C)cc1 | inconclusive [inhibitor, single point]
67 | COc1ccccc1C(=O)C1CCCN(C(=O)c2snnc2C)C1 (stereo not given) | inconclusive [inhibitor, full curve, poor fit]
68 | Cc1ccc2[nH]c3c(N4CCOCC4)ncnc3c2c1 | inconclusive [inhibitor, single point]
69 | CCOc1ccc(OCc2ccc(C(=O)NC(C)C)o2)cc1 | inconclusive [inhibitor, full curve]
70 | COc1ccc(-c2cc(-c3nnc(COC(=O)c4ccc(O)cc4)o3)c3ccccc3n2)cc1OC | active: 9.28 µM
